# Results published in article PMC7819943, “Rice protein-binding microarrays: a tool to detect cis-acting elements near promoter regions in rice”.
# This is one part of the list.
# Target: T1, OsWOX13 (Oryza sativa, UniProt Q5QMM3 1-267)
# T1 sequence: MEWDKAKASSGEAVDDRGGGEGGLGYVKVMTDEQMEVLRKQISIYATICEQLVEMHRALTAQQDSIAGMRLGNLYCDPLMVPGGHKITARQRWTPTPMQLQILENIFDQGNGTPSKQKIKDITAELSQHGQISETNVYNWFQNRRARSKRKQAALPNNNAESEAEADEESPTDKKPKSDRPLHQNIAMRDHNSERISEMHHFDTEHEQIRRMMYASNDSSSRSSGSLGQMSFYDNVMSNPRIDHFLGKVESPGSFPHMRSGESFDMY
# Assay: protein-binding microarray (RPBM); PBS, 2% BSA, 51.3 ng/ul salmon testes DNA, 50 uM zinc acetate, 200 nM TF, 25 C, 1 h; high values mean tight binding
# Conditions: protein: recombinant; tags: N-terminal polyhistidine and DsRed monomer fusion (pET32a); label: CyDye5-dUTP incorporated in the synthesized complementary strand; 3' TTTTT single-stranded linker to array surface; dsDNA, one strand shown
# Outline: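 Binding signal is reported as fluorescence intensity per feature (arbitrary units) from an Axon 4000B scanner. Incubation used 200 nM of each Ni–NTA-purified, N-terminally polyhistidine- and DsRed-fused transcription factor from E. coli BL21-CodonPlus on a double-stranded custom Agilent array for 1 h at 25 °C, with 50 µM zinc acetate in the buffer, followed by washing.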
row,Sequence,binding signal
1,AGCTTATGTGATTTATAAACCGGTGACTTTAAAACTGTTTCGGAGTCACCTAGTGCAG,6010 fluorescence intensity (a.u.)
2,TTTAATTTATGGAGAATATGGTTTGTGCTCATGGTTGGGACGGAGTCACCTAGTGCAG,19400 fluorescence intensity (a.u.)
3,AGTCAATTTAAACATGGCCGGCTGTAAAATCAATTTAGTCCGGAGTCACCTAGTGCAG,11400 fluorescence intensity (a.u.)
4,AGATTAAACTGGAATGGAGGGTGTAACAAGTGATCTCAGCCGGAGTCACCTAGTGCAG,5620 fluorescence intensity (a.u.)
5,TAATTCCATTAACTTTCTTTCAATCTTAAAACTCCTGACACGGAGTCACCTAGTGCAG,3290 fluorescence intensity (a.u.)
6,TTAAATAGACACATTCTAATACTTCAAAATAATAACAAGCCGGAGTCACCTAGTGCAG,15300 fluorescence intensity (a.u.)
7,AAACTAATTGCACAGTTAAGAAGAAAATCACGAGACGAATCGGAGTCACCTAGTGCAG,16500 fluorescence intensity (a.u.)
8,GGGGTAAATTCAGACTTAATTTTAAGTAGATTTTAGAATACGGAGTCACCTAGTGCAG,13000 fluorescence intensity (a.u.)
9,TAATTATTGACTAATATATTAATTAATATAATGTAATTTACGGAGTCACCTAGTGCAG,22700 fluorescence intensity (a.u.)
10,GTTAAACTAATTTGAATTTGTTAGTACAGTTTGCATTTCACGGAGTCACCTAGTGCAG,25500 fluorescence intensity (a.u.)
11,CCTTATTAATGAGGTGTGGTTTATGGATATGATAGAGAGACGGAGTCACCTAGTGCAG,3170 fluorescence intensity (a.u.)
12,ATTAATTGTTGTACATTATAAATTTTCCCTTGCATGTTTCCGGAGTCACCTAGTGCAG,24800 fluorescence intensity (a.u.)
13,CGAATTTCAGTTATTTCCTAATTGTATTTCTATATGGACTCGGAGTCACCTAGTGCAG,6210 fluorescence intensity (a.u.)
14,TCTTGATTATTACATCCCAAAATTACTGAATCCCCTCCTCCGGAGTCACCTAGTGCAG,36300 fluorescence intensity (a.u.)
15,CTGGGATTAGAGTGCTTGTCAATGGTATTTCATGGATTTTCGGAGTCACCTAGTGCAG,3340 fluorescence intensity (a.u.)
16,TTCGTCAATTAACAATTTAATACTCCCTCCGTTTTATAGTCGGAGTCACCTAGTGCAG,17700 fluorescence intensity (a.u.)
17,CTAGTAATTACAAACATTGGAACTGAGTTTTGGTTGGGGTCGGAGTCACCTAGTGCAG,23800 fluorescence intensity (a.u.)
18,ACAATCAAACGGAAATTACACTGCAAATCAGCATATCAGGCGGAGTCACCTAGTGCAG,5260 fluorescence intensity (a.u.)
19,ATGTGATGGAAAAGTTAGAAGTTTGTGTGTAGGAAAGTTTCGGAGTCACCTAGTGCAG,4790 fluorescence intensity (a.u.)
20,CCAATTTGACCACGAAATTTACTCACTCGGAATTCAGAAGCGGAGTCACCTAGTGCAG,3380 fluorescence intensity (a.u.)
21,AATAAAATTTTCTCTTAAACTACTCATCCGATCTTACGATCGGAGTCACCTAGTGCAG,3200 fluorescence intensity (a.u.)
22,GGTCATGAGATTACTGTTAACTAATCCACCCAAAACGTAGCGGAGTCACCTAGTGCAG,4830 fluorescence intensity (a.u.)
23,GAGAATTGATAACATAGGCAGTTTTGACAAGGCTGTAAGTCGGAGTCACCTAGTGCAG,20100 fluorescence intensity (a.u.)
24,GTCCTTCCCCTGATTATAATACAGCAACTTAATGCCGGTTCGGAGTCACCTAGTGCAG,5070 fluorescence intensity (a.u.)
25,CCTAATTATTCTCCTCAATTACAGAGTTTGTTACATGCATCGGAGTCACCTAGTGCAG,29700 fluorescence intensity (a.u.)
26,AGAGGAAATACGACAGCCTTGATTGTTTTCTCTCTCACTCCGGAGTCACCTAGTGCAG,3760 fluorescence intensity (a.u.)
27,AAAAGAGTTATACTTAATTAATCACACTCTCCGATTAAACCGGAGTCACCTAGTGCAG,4760 fluorescence intensity (a.u.)

row,Sequence,binding signal
1,GGATTTGATCGATTGGATTTCGATTTGGCCCGCGATTTGGCGGAGTCACCTAGTGCAG,4010 fluorescence intensity (a.u.)
2,GCTGATCGAATTAATTTACACATATATAGATAGATAGATACGGAGTCACCTAGTGCAG,29400 fluorescence intensity (a.u.)
3,GCTTAATTAATGGGCCTTTCAAGTGGTTCCACGAAGGCCCCGGAGTCACCTAGTGCAG,25300 fluorescence intensity (a.u.)
4,ATTCCGTACTAATTATTAACATATGCCAAATTTTAAAGAACGGAGTCACCTAGTGCAG,6540 fluorescence intensity (a.u.)
5,TGTTTTGATTGTTTCTTATTACTCCCTCCGATTATAAATACGGAGTCACCTAGTGCAG,25500 fluorescence intensity (a.u.)
6,TCCTCACACGGGTTATGATTGGTAAAATTGCTCTAAACCCCGGAGTCACCTAGTGCAG,17600 fluorescence intensity (a.u.)
7,TAGGATTAATAATCGATTTATTTTGCTGACATCTTGGGAGCGGAGTCACCTAGTGCAG,8200 ± 89.1 fluorescence intensity (a.u.)
8,TAGTATAATTGATTTTCCACTTAATATTTTAGCAACTACACGGAGTCACCTAGTGCAG,45100 fluorescence intensity (a.u.)
9,TGCCAATTAACGTGTGCATCTTGTATCACACATTTCTCAACGGAGTCACCTAGTGCAG,10300 fluorescence intensity (a.u.)
10,CAATGATTGCGGTTCCTTCCTCTAGCTCCTTAACGGTGATCGGAGTCACCTAGTGCAG,47200 fluorescence intensity (a.u.)
11,CAAATATACTGATTGTATGCTTCCAGTAATTAAACCATTTCGGAGTCACCTAGTGCAG,12200 fluorescence intensity (a.u.)
12,CGAATAACCAATCAATCAATATACAGTCATTGACAACGCACGGAGTCACCTAGTGCAG,43200 fluorescence intensity (a.u.)
13,TTTTCAGAAAATGATTAGCAACGAGCTTTGCCTTTGATTCCGGAGTCACCTAGTGCAG,5630 fluorescence intensity (a.u.)
14,CAATAGTAATTGCTAGTAGATGATGATGTGGTATATTTGCCGGAGTCACCTAGTGCAG,16000 fluorescence intensity (a.u.)
15,GCTAATACTTAATTAATCACGCGCTAATAGACCGCTCCGTCGGAGTCACCTAGTGCAG,24500 fluorescence intensity (a.u.)
16,GATTATAAATTACAAGTGTTAATTTGATGAATTTTGTTATCGGAGTCACCTAGTGCAG,19500 fluorescence intensity (a.u.)
17,GGTGGGTGGGCATTTGCAACAAAATAACTTACGGGGTGGACGGAGTCACCTAGTGCAG,3370 fluorescence intensity (a.u.)
18,AATTTACGATTGATTATTCATTCAGTGAGGCGCATGCGGTCGGAGTCACCTAGTGCAG,32700 fluorescence intensity (a.u.)
19,AATGATAACTATTTAGATGACATACAAACAACAGGGGATGCGGAGTCACCTAGTGCAG,12400 fluorescence intensity (a.u.)
20,TGTATAATTAAGGAGCACCAAATGAGCATTGTGTGTGCGCCGGAGTCACCTAGTGCAG,10800 fluorescence intensity (a.u.)
21,GTTATAATTTCTTAGGGTCACATTATATTTGCCATCATTTCGGAGTCACCTAGTGCAG,4430 fluorescence intensity (a.u.)
22,TTGACAGCTTGATTGTTAGATGATATGTACAAAGGAATATCGGAGTCACCTAGTGCAG,38500 fluorescence intensity (a.u.)
23,GTCTGTAAATTGCGAACAGTTATTATAACTGAACGTAGAACGGAGTCACCTAGTGCAG,5090 fluorescence intensity (a.u.)
24,TTGTAATTTAGCACTTAGGGTGCTTGTGTCTGCACTGCAGCGGAGTCACCTAGTGCAG,4320 fluorescence intensity (a.u.)
25,CCGATTGAGATAACTTCTAACATCAGTGACCTTTGCTTAGCGGAGTCACCTAGTGCAG,7790 fluorescence intensity (a.u.)
26,CTAATTTTAACCAAAATTATAATTTTAACGTAGACCGAGCCGGAGTCACCTAGTGCAG,29000 fluorescence intensity (a.u.)
27,TAGATGAAATGGGTTGGGTTGATTTGGGTTGAAATATGATCGGAGTCACCTAGTGCAG,6400 fluorescence intensity (a.u.)
